# The supplement of paper PMC8728848
# The list shows a part of the results.
# B1: Langerin (Homo sapiens), Q9UJ71 (protein)
# chain: STLNAQIPELKSDLEKASALNTKIRALQGSLENMSKLLKRQNDILQVVSQGWKYFKGNFYYFSLIPKTWYSAEQFCVSRNSHLTSVTSESEQEFLYKTAGGLIYWIGLTKAGMEGDWSWVDDTPFNKVQSARFWIPGEPNDAGNNEHCGNIKAPSLQAWNDAPCDITFLFICKRPYVPSEP
# How the values were obtained:
# Experiment in all cases: glycan array binding signal (z-score within array); higher = stronger binding
# Settings in all cases: glycan notation: IUPAC condensed, linker removed; mutation: N288D, K313I
# Neu5Ac(a2-3)Gal = molecular target: Neu5Ac(a2-3)Gal
# Outline: (§1)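 Columns mapping to the same glycan were averaged after glycan names were converted to IUPAC-condensed notation. The data come from 3228 arrays in the Consortium for Functional Glycomics database, limited to those with an available protein sequence. Binding is reported as a within-array Z-score averaged across arrays of one protein sequence and across linkers.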
# [1] = molecular target: Neu5Ac(a2-3)Gal(b1-3)GalNAc
# Outline: as §1
# [2] = molecular target: Neu5Ac(a2-3)Gal(b1-3)GalNAc(b1-3)Gal(a1-4)Gal(b1-4)Glc
# Outline: as §1
# [3] = molecular target: Neu5Ac(a2-3)Gal(b1-3)GalNAc(b1-4)[Neu5Ac(a2-3)]Gal(b1-4)Glc
# Outline: as §1
# [4] = molecular target: Neu5Ac(a2-3)Gal(b1-3)GalNAc(b1-4)[Neu5Ac(a2-8)Neu5Ac(a2-3)]Gal(b1-4)Glc
# Outline: as §1
# [5] = molecular target: Neu5Ac(a2-3)Gal(b1-3)GalNAc6S
# Outline: as §1
# [6] = molecular target: Neu5Ac(a2-3)Gal(b1-3)GlcNAc
# Outline: as §1
# [7] = molecular target: Neu5Ac(a2-3)Gal(b1-3)GlcNAc(b1-2)Man
# Outline: as §1
# [8] = molecular target: Neu5Ac(a2-3)Gal(b1-3)GlcNAc(b1-2)Man(a1-3)[GlcNAc(b1-4)][Neu5Ac(a2-3)Gal(b1-3)GlcNAc(b1-2)Man(a1-6)]Man(b1-4)GlcNAc(b1-4)GlcNAc
# Outline: as §1
# [9] = molecular target: Neu5Ac(a2-3)Gal(b1-3)GlcNAc(b1-2)Man(a1-3)[Neu5Ac(a2-3)Gal(b1-3)GlcNAc(b1-2)Man(a1-6)]Man(b1-4)GlcNAc(b1-4)GlcNAc
# Outline: as §1
# [10] = molecular target: Neu5Ac(a2-3)Gal(b1-3)GlcNAc(b1-3)Gal(b1-3)GlcNAc
# Outline: as §1
# [11] = molecular target: Neu5Ac(a2-3)Gal(b1-3)GlcNAc(b1-3)Gal(b1-4)GlcNAc
# Outline: as §1
# [12] = molecular target: Neu5Ac(a2-3)Gal(b1-3)GlcNAc(b1-3)GalNAc
# Outline: as §1
# [13] = molecular target: Neu5Ac(a2-3)Gal(b1-3)GlcNAc(b1-4)Gal(b1-4)Glc
# Outline: as §1
# [14] = molecular target: Neu5Ac(a2-3)Gal(b1-3)GlcNAc(b1-6)GalNAc
# Outline: as §1
# [15] = molecular target: Neu5Ac(a2-3)Gal(b1-3)GlcNAc6S
# Outline: as §1
# [16] = molecular target: Neu5Ac(a2-3)Gal(b1-3)[Fuc(a1-4)]GlcNAc
# Outline: as §1
# [17] = molecular target: Neu5Ac(a2-3)Gal(b1-3)[Fuc(a1-4)]GlcNAc(b1-3)Gal(b1-3)[Fuc(a1-4)]GlcNAc
# Outline: as §1
# [18] = molecular target: Neu5Ac(a2-3)Gal(b1-3)[Fuc(a1-4)]GlcNAc(b1-3)Gal(b1-4)[Fuc(a1-3)]GlcNAc
# Outline: as §1
# [19] = molecular target: Neu5Ac(a2-3)Gal(b1-3)[GlcNAc(b1-6)]GalNAc
# Outline: as §1
# [20] = molecular target: Neu5Ac(a2-3)Gal(b1-3)[Neu5Ac(a2-6)]GalNAc
# Outline: as §1
# [21] = molecular target: Neu5Ac(a2-3)Gal(b1-3)[Neu5Ac(a2-6)]GlcNAc(b1-3)[Fuc(a1-3)[Gal(b1-4)]GlcNAc(b1-6)]Gal(b1-4)Glc
# Outline: as §1
# [22] = molecular target: Neu5Ac(a2-3)Gal(b1-3)]Neu5Ac(a2-3)Gal(b1-4)]GlcNAc
# Outline: as §1
# Neu5Ac(a2-3)Gal(b1-4)Glc = molecular target: Neu5Ac(a2-3)Gal(b1-4)Glc
# Outline: as §1
# [23] = molecular target: Neu5Ac(a2-3)Gal(b1-4)GlcNAc
# Outline: as §1
# [24] = molecular target: Neu5Ac(a2-3)Gal(b1-4)GlcNAc(b1-2)Man
# Outline: as §1
# [25] = molecular target: Neu5Ac(a2-3)Gal(b1-4)GlcNAc(b1-2)Man(a1-3)[GlcNAc(b1-4)][Neu5Ac(a2-3)Gal(b1-4)GlcNAc(b1-2)Man(a1-6)]Man(b1-4)GlcNAc(b1-4)GlcNAc
# Outline: as §1
# [26] = molecular target: Neu5Ac(a2-3)Gal(b1-4)GlcNAc(b1-2)Man(a1-3)[Neu5Ac(a2-3)Gal(b1-4)GlcNAc(b1-2)Man(a1-6)]Man(b1-4)GlcNAc(b1-4)GlcNAc
# Outline: as §1
# [27] = molecular target: Neu5Ac(a2-3)Gal(b1-4)GlcNAc(b1-2)Man(a1-3)[Neu5Ac(a2-3)Gal(b1-4)GlcNAc(b1-2)Man(a1-6)]Man(b1-4)GlcNAc(b1-4)[Fuc(a1-6)]GlcNAc
# Outline: as §1
# [28] = molecular target: Neu5Ac(a2-3)Gal(b1-4)GlcNAc(b1-2)Man(a1-3)[Neu5Ac(a2-6)Gal(b1-4)GlcNAc(b1-2)Man(a1-6)]Man(b1-4)GlcNAc(b1-4)GlcNAc
# Outline: as §1
# [29] = molecular target: Neu5Ac(a2-3)Gal(b1-4)GlcNAc(b1-2)[Neu5Ac(a2-3)Gal(b1-4)GlcNAc(b1-4)]Man(a1-3)[GlcNAc(b1-4)][Neu5Ac(a2-3)Gal(b1-4)GlcNAc(b1-2)[Neu5Ac(a2-3)Gal(b1-4)GlcNAc(b1-6)]Man(a1-6)]Man(b1-4)GlcNAc(b1-4)GlcNAc
# Outline: as §1
# [30] = molecular target: Neu5Ac(a2-3)Gal(b1-4)GlcNAc(b1-2)[Neu5Ac(a2-3)Gal(b1-4)GlcNAc(b1-4)]Man(a1-3)[GlcNAc(b1-4)][Neu5Ac(a2-3)Gal(b1-4)GlcNAc(b1-4)Man(a1-6)]Man(b1-4)GlcNAc(b1-4)GlcNAc
# Outline: as §1
# [31] = molecular target: Neu5Ac(a2-3)Gal(b1-4)GlcNAc(b1-2)[Neu5Ac(a2-3)Gal(b1-4)GlcNAc(b1-6)]Man(a1-6)[Neu5Ac(a2-3)Gal(b1-4)GlcNAc(b1-2)Man(a1-3)]Man(b1-4)GlcNAc(b1-4)GlcNAc
# Outline: as §1
# [32] = molecular target: Neu5Ac(a2-3)Gal(b1-4)GlcNAc(b1-2)[Neu5Ac(a2-3)Gal(b1-4)GlcNAc(b1-6)]Man(a1-6)[Neu5Ac(a2-3)Gal(b1-4)GlcNAc(b1-2)Man(a1-3)][GlcNAc(b1-4)]Man(b1-4)GlcNAc(b1-4)GlcNAc
# Outline: as §1
# [33] = molecular target: Neu5Ac(a2-3)Gal(b1-4)GlcNAc(b1-3)Gal
# Outline: as §1
# [34] = molecular target: Neu5Ac(a2-3)Gal(b1-4)GlcNAc(b1-3)Gal(b1-3)GlcNAc
# Outline: as §1
# [35] = molecular target: Neu5Ac(a2-3)Gal(b1-4)GlcNAc(b1-3)Gal(b1-4)GlcNAc
# Outline: as §1
# [36] = molecular target: Neu5Ac(a2-3)Gal(b1-4)GlcNAc(b1-3)Gal(b1-4)GlcNAc(b1-2)Man(a1-3)[Neu5Ac(a2-3)Gal(b1-4)GlcNAc(b1-3)Gal(b1-4)GlcNAc(b1-2)Man(a1-6)]Man(b1-4)GlcNAc(b1-4)GlcNAc
# Outline: as §1
# [37] = molecular target: Neu5Ac(a2-3)Gal(b1-4)GlcNAc(b1-3)Gal(b1-4)GlcNAc(b1-3)Gal(b1-4)GlcNAc
# Outline: as §1
# [38] = molecular target: Neu5Ac(a2-3)Gal(b1-4)GlcNAc(b1-3)Gal(b1-4)GlcNAc(b1-3)Gal(b1-4)GlcNAc(b1-2)Man(a1-3)[Neu5Ac(a2-3)Gal(b1-4)GlcNAc(b1-3)Gal(b1-4)GlcNAc(b1-3)Gal(b1-4)GlcNAc(b1-2)Man(a1-6)]GalNAc
# Outline: as §1
# [39] = molecular target: Neu5Ac(a2-3)Gal(b1-4)GlcNAc(b1-3)Gal(b1-4)GlcNAc(b1-3)GalNAc
# Outline: as §1
# [40] = molecular target: Neu5Ac(a2-3)Gal(b1-4)GlcNAc(b1-3)Gal(b1-4)GlcNAc(b1-3)[Neu5Ac(a2-3)Gal(b1-4)GlcNAc(b1-3)Gal(b1-4)GlcNAc(b1-6)]GalNAc
# Outline: as §1
# [41] = molecular target: Neu5Ac(a2-3)Gal(b1-4)GlcNAc(b1-3)Gal(b1-4)GlcNAc(b1-6)[Gal(b1-3)]GalNAc
# Outline: as §1
# [42] = molecular target: Neu5Ac(a2-3)Gal(b1-4)GlcNAc(b1-3)Gal(b1-4)[Fuc(a1-3)]GlcNAc
# Outline: as §1
# [43] = molecular target: Neu5Ac(a2-3)Gal(b1-4)GlcNAc(b1-3)GalNAc
# Outline: as §1
binder,measurement,setting,value
B1,glycan array binding signal (z-score),Neu5Ac(a2-3)Gal,-0.27
same,glycan array binding signal (z-score),[1],-0.176
same,glycan array binding signal (z-score),[2],-0.143
same,glycan array binding signal (z-score),[3],-0.287
same,glycan array binding signal (z-score),[4],-0.117
same,glycan array binding signal (z-score),[5],-0.23
same,glycan array binding signal (z-score),[6],-0.204
same,glycan array binding signal (z-score),[7],-0.251
same,glycan array binding signal (z-score),[8],0.184
same,glycan array binding signal (z-score),[9],-0.145
same,glycan array binding signal (z-score),[10],-0.292
same,glycan array binding signal (z-score),[11],-0.212
same,glycan array binding signal (z-score),[12],-0.147
same,glycan array binding signal (z-score),[13],0.131
same,glycan array binding signal (z-score),[14],-0.092
same,glycan array binding signal (z-score),[15],-0.22
same,glycan array binding signal (z-score),[16],-0.217
same,glycan array binding signal (z-score),[17],-0.088
same,glycan array binding signal (z-score),[18],-0.187
same,glycan array binding signal (z-score),[19],-0.219
same,glycan array binding signal (z-score),[20],-0.106
same,glycan array binding signal (z-score),[21],-0.298
same,glycan array binding signal (z-score),[22],-0.269
same,glycan array binding signal (z-score),Neu5Ac(a2-3)Gal(b1-4)Glc,0.038
same,glycan array binding signal (z-score),[23],-0.227
same,glycan array binding signal (z-score),[24],-0.022
same,glycan array binding signal (z-score),[25],-0.299
same,glycan array binding signal (z-score),[26],-0.329
same,glycan array binding signal (z-score),[27],-0.104
same,glycan array binding signal (z-score),[28],-0.34
same,glycan array binding signal (z-score),[29],-0.156
same,glycan array binding signal (z-score),[30],-0.189
same,glycan array binding signal (z-score),[31],-0.072
same,glycan array binding signal (z-score),[32],-0.35
same,glycan array binding signal (z-score),[33],-0.265
same,glycan array binding signal (z-score),[34],-0.184
same,glycan array binding signal (z-score),[35],-0.344
same,glycan array binding signal (z-score),[36],-0.171
same,glycan array binding signal (z-score),[37],-0.227
same,glycan array binding signal (z-score),[38],0.041
same,glycan array binding signal (z-score),[39],-0.189
same,glycan array binding signal (z-score),[40],0.135
same,glycan array binding signal (z-score),[41],0.059
same,glycan array binding signal (z-score),[42],-0.224
same,glycan array binding signal (z-score),[43],-0.218
